Experimental data published in PubChem BioAssay AID1460 (National Center for Advancing Translational Sciences (NCATS), 2008).
Where “and” joins values, the source holds several entries; their conditions need not be identical. Equal entries are not always repeated. Out of some 270,000 compounds screened, about 5,800 (2.1%) were called active. The inconclusive results got no clear call from the source; some entries with a clear call stand among them for comparison. The call rests on the fitted dose curve; in most records, active means well fitted inhibition curve with a large enough effect; inconclusive means small, poorly fitted or top-dose-only effect; inactive means flat fitted curve, though single readings scatter. Potencies beside an inconclusive call are fits to weak or partial responses and may not hold up.

Biological target: Microtubule-associated protein tau (Homo sapiens) (UniProt P10636)
UniProt P10636, sequence (P10636 whole entry, looked up): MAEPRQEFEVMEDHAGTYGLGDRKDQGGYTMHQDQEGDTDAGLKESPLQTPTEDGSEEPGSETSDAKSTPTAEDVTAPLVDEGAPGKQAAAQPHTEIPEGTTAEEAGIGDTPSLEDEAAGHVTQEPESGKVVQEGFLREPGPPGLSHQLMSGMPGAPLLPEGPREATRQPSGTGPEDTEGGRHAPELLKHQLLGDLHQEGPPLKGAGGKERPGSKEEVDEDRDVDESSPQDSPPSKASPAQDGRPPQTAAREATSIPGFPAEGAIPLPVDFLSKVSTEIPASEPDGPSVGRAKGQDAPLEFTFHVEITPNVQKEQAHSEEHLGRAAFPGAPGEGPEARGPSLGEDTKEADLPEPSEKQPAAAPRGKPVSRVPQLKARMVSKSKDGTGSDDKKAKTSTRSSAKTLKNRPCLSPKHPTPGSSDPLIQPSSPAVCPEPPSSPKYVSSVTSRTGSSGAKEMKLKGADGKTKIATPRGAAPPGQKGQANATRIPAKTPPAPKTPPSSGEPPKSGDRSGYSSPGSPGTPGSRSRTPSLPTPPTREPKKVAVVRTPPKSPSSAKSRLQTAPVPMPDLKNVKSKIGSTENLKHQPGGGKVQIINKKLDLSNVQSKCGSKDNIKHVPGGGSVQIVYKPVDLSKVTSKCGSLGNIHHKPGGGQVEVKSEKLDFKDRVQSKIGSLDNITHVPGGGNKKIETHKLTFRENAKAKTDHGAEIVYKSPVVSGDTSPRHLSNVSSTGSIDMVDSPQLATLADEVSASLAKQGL
Experiment: qHTS for Inhibitors of Tau Fibril Formation, Thioflavin T Binding; further: nearly all actives have a fitted effect of over 55% in size
Settings: recombinant tau K18 P301L (four-repeat tau fragment), heparin-induced fibrillization, ThT fluorescence; series mostly up to 57.4 µM
Outline: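 Heparin-induced (20 uM) aggregation of recombinant human K18 P301L tau, 15 uM unlabeled with 0.24 uM labeled, pH 7 acetate buffer, 6 hr at 37 C with compound. Fibrils quantified by 30 uM ThT fluorescence after 1 hr ambient incubation.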
Potency means the concentration at half of the fitted maximal effect; tags describe the fitted curve by direction and shape.

Structure (SMILES) | Potency
Cc1ccc(C2C(C(=O)c3sc(C)nc3C)=C(O)C(=O)N2CCN(C)C)o1 (configuration not stated) | inconclusive: 39.8 µM [inhibitor, single point]
CC1CCc2c(sc(NC(=O)CCCn3cnc([N+](=O)[O-])n3)c2C(N)=O)C1 (configuration not stated) | inactive
CN1[C@H](CC(=O)c2ccccc2)CCC[C@H]1C[C@@H](O)c1ccccc1 | inactive
COc1cc(/C=N/Nc2nn3cnnc3c3ccccc23)ccc1O | inconclusive: 3.55 µM [inhibitor, full curve]
CCCNC(=O)Cn1c(=O)c2cccn2c2cccnc21 | inactive
CCOc1cc(CNCCCN2CCOCC2)cc(Br)c1OCc1ccccc1Cl | inconclusive: 15.8 µM [inhibitor, single point]
COc1ccc(CN(C#N)c2nc(SC)nc(N(C)C)n2)cc1 | inconclusive: 39.8 µM [inhibitor, single point]
CCC(N=c1cc(-c2ccc(OC)c(OC)c2)oc2ccc(C)cc12)C(=O)O (configuration not stated) | inconclusive: 44.7 µM [inhibitor, single point]
Cc1nn(-c2ccccc2)c2c1C(c1ccccc1)C(C#N)=C(N)O2 (configuration not stated) | inconclusive: 7.08 µM [inhibitor, partial curve]
Cc1cccc(-c2n[nH]c(=S)n2Cc2ccccc2)c1 | inconclusive: 31.6 µM [inhibitor, single point]
Cc1sc2ncnc(NCc3ccccc3)c2c1C | inactive
O=C(/C=C/c1ccccc1)c1ccccn1 | inconclusive: 20 µM [inhibitor, partial curve]
O=C(Nc1ncccc1Cl)C(Sc1ccccc1)c1ccccc1 (configuration not stated) | inactive
c1ccc(CSc2ncnc3sccc23)cc1 | inconclusive: 22.4 µM [inhibitor, single point]
O=C(/C=C/c1ccco1)Nc1nc(-c2ccccn2)cs1 | inconclusive: 14.1 µM [inhibitor, partial curve]
O=C(NC(c1ccccc1)c1ccccc1)c1cccc(S(=O)(=O)NCc2ccccc2)c1 | inactive
Cc1ccc(Cl)cc1N1CCN(C(=O)c2ccc(CS(=O)c3ccccc3)o2)CC1 (configuration not stated) | inconclusive: 10 µM [inhibitor, partial curve]
Cc1ccc(O)c(C2=NNC(c3ccc(Cl)cc3)C2)c1 (configuration not stated) | inconclusive: 20 µM [inhibitor, partial curve]
Cc1cc(C)cc(Nc2cc(C(=O)NCCCN(C)C3CCCCC3)c3ccccc3n2)c1 | inconclusive: 12.6 µM [inhibitor, partial curve]
Cc1ccc(NC(=O)CCC(=O)NNC(=S)Nc2ccccc2)c(C)c1 | inconclusive: 14.1 µM [inhibitor, partial curve]
COc1c(Cl)cc(Cl)cc1/C=C/C(=O)c1ccc(NC(=O)c2cccs2)cc1 | inconclusive: 20 µM [inhibitor, partial curve]
CCOc1cccc(OCCOCCOc2ccccc2C(C)=O)c1 | inconclusive: 39.8 µM [inhibitor, single point]
COc1ccc(CC(=O)Nc2ccc(S(=O)(=O)Nc3cc(C)on3)cc2)cc1OC | inactive
COCCCNC(=O)c1sc2nc(C)c(C(=O)Nc3ccc(C)cc3C)c(-c3ccccc3Cl)c2c1N | inactive

Structure (SMILES) | Potency
CCc1cc(=O)oc2c(C)c3c(cc12)CN(CCc1ccccc1OC)CO3 | inconclusive: 25.1 µM [inhibitor, partial curve, poor fit]
Cc1cc(C)nc(SCC(=O)c2ccc([N+](=O)[O-])cc2)n1 | inconclusive: 31.6 µM [inhibitor, partial curve]
Cn1c(SCc2cc(=O)c3cc(Cl)ccc3[nH]2)nnc1-c1ccccc1 | inactive
Cc1csc(NC(=O)Cn2nc(C)c([N+](=O)[O-])c2C)n1 | inactive
COC(=O)c1scc(-c2ccc(C)cc2)c1S(=O)(=O)N1CCN(c2ccc(C)cc2C)CC1 | inactive
CCOC(=O)C(=CNc1ccc(Oc2cccnc2)nc1)C(=O)OCC | inconclusive: 44.7 µM [inhibitor, single point]
Cc1ccc(-c2nnc3ccc(SCC(=O)N4CCCc5ccccc54)nn23)cc1 | inconclusive: 25.1 µM [inhibitor, single point]
Cn1c(=O)c(=O)n(C)c2cc(C(=O)NCc3ccccc3Cl)ccc21 | inactive
O=C(CSc1nnc2ccccn12)Nc1ccccc1C(=O)O | inactive
CCCCCC(=O)N/N=C/c1cc(Br)c(O)c(OC)c1 | inconclusive: 25.1 µM [inhibitor, single point]
Fc1ccc(C2c3[nH]c4ccccc4c3CCN2Cc2ccoc2)cc1 (configuration not stated) | inconclusive: 20 µM [inhibitor, partial curve]
Cc1ccc(C)c(N2CCN(CCCNC(=O)c3cnn(-c4ccccc4)c3C3CCN(C(=O)OC(C)(C)C)CC3)CC2)c1 | inconclusive: 44.7 µM [inhibitor, single point]
Cc1ccc(NC(=O)CCC(=O)OCC(=O)c2ccc(Oc3ccc([N+](=O)[O-])cc3)cc2)cc1C | inactive
Nc1cccc(-n2cccc2)c1 | inconclusive: 12.6 µM [inhibitor, partial curve]
O=C(Nc1cccc(C(F)(F)F)c1)c1cc(-c2cccs2)on1 | inconclusive: 1.78 µM [inhibitor, full curve]
Cc1cccc(CCn2c(=O)c3ccccc3n(CC(=O)Nc3ccccc3F)c2=O)c1 | inactive
c1ccc2c(c1)oc1c(Nc3ccc4c(c3)OCCO4)ncnc12 | inconclusive: 5.62 µM [inhibitor, partial curve, poor fit]
O=C(COC(=O)CCc1nc2ccccc2c(=O)[nH]1)Nc1ccc2c(c1)OCO2 | inconclusive: 39.8 µM [inhibitor, single point]
CCOC(=O)c1c(C)[nH]c(C2=NNC(=Nc3ccccc3)SC2)c1C | active: 3.98 µM
Cc1cc(NC(=S)N(Cc2cccc(Br)c2)CC2CCC(C(=O)O)CC2)ccc1Cl (configuration not stated) | inconclusive: 39.8 µM [inhibitor, single point]
Cc1ccn2c(=O)cc(CSc3nnc(C)s3)nc2c1 | inactive
CCOC(=O)c1ccc(N2C(=O)C(CC(=O)NC)N(CCc3ccc(OC)c(OC)c3)C2=S)cc1 (configuration not stated) | inconclusive: 7.94 µM [inhibitor, partial curve, poor fit]
Nc1cc2nn(-c3ccccc3)nc2cc1Cl | active: 3.55 µM
CCc1ccc(-n2nnnc2SCC(=O)NNC(=O)c2ccco2)cc1 | inactive

Structure (SMILES) | Potency
C/C(=N\NC(=O)CSCc1ccc([N+](=O)[O-])cc1)c1ccccc1 | inconclusive: 39.8 µM [inhibitor, single point]
CCN(CC)c1ccc(C2C(C(=O)Nc3ccccc3C)=C(C)Nc3ncnn32)cc1 (configuration not stated) | inactive
O=[N+]([O-])c1cc(F)c(N2CCOCC2)cc1N1CCCCC1 | inconclusive: 20 µM [inhibitor, partial curve]
c1ccc(Cn2c(SCCN3CCOCC3)nnc2-c2cccnc2)cc1 | inactive
CCN(CCO)c1ccc(NC(=S)Nc2cccc(S(=O)(=O)N(C)C)c2)cc1 | active: 14.1 µM
CCCCC(=O)Nc1ccc(OCc2cc(=O)n3c(C)csc3n2)cc1 | inconclusive: 5.62 µM [inhibitor, partial curve]
CCOC(=O)c1sc2nc(CC(=O)OC)nc(NCC(=O)OC)c2c1C | inactive
CSc1nc(N2CCN(CCO)CC2)c2sc3nc(-c4ccco4)c4c(c3c2n1)CCC4 | inconclusive: 15.8 µM [inhibitor, partial curve]
COc1ccc(-c2nnc(NC(=O)C(C)C)o2)cc1 | inactive
CCCc1cc(-c2n[nH]c(C(=O)OCC)c2-c2cscn2)c(O)cc1O | inconclusive: 10 µM [inhibitor, partial curve]
O=C(Nc1scc(-c2cccs2)c1C(=O)O)c1cccs1 | inconclusive: 6.31 µM [inhibitor, partial curve]
Cc1cccc(-n2nc3c(c2NC(=O)CCC2CCCCC2)CS(=O)C3)c1C (configuration not stated) | inactive
COc1cccc([C@@H]2Oc3ccc(Br)cc3C(=O)[C@H]2OC(=O)Nc2ccc(C)c(Br)c2)c1 | inconclusive: 7.08 µM [inhibitor, single point]
C=CCn1c(SCCCC)nc(O)cc1=O | inconclusive: 631 nM [inhibitor, partial curve] and inconclusive: 31.6 µM [inhibitor, partial curve]
Cc1ccn2cc(CNC(=O)c3cccc(C(F)(F)F)c3)nc2c1 | inactive
COc1ccccc1Nc1c2c(nc3ccc(NC(=O)c4ccccc4F)cc13)CCCC2 | inconclusive: 25.1 µM [inhibitor, partial curve]
Cc1cc(C(=O)NCc2ccco2)cs1 | inactive
O=S(=O)(c1ccccc1)c1nc(-c2ccccc2)oc1N1CCCCC1 | inconclusive: 35.5 µM [inhibitor, single point]
CNc1nc(-c2ccc(N(C)C)cc2)nc2ccccc12 | inconclusive: 3.55 µM [inhibitor, full curve]
COc1ccc(C2=CC(=O)C=CC2=O)cc1 | active: 14.1 µM
Cc1ccc2nc(-c3ccsc3)c(Nc3ccc(Cl)cc3)n2c1 | inactive
CCCn1c(=O)c(C(=O)NCc2ccncc2)c(O)c2ccccc21 | inconclusive: 28.2 µM [inhibitor, single point]
Cc1c(NC(=O)c2cccc(-c3cc4ccccc4oc3=O)c2)cccc1-c1nc2ncccc2o1 | inconclusive: 3.98 µM [inhibitor, full curve, poor fit]
Cc1cc2cc(CNC(=O)c3ccco3)ccc2n1C | inconclusive: 44.7 µM [inhibitor, single point]
